Reference: PubChem BioAssay AID1434 (Sanford-Burnham Center for Chemical Genomics, 2008)
Some of the results follow. The main result of the screen is listed elsewhere. These columns were measured beside it and carry no call. The list favours compounds with an active or inconclusive main result.

Molecular target: Runt-related transcription factor 1 (Homo sapiens) + Core-binding factor subunit beta (Homo sapiens) (UniProt Q01196+Q13951)
Test: disruptors of Runt domain/CBFb-SMMHC interaction – biochemical, FRET, Cerulean-Runt, Venus-CBFb-SMMHC, uHTS, primary screen (AID 1434);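 note: 0% = DMSO wells and 100% = wells with excess untagged CBFb-SMMHC; inhibitors lower the FRET ratio by blocking Runt binding to CBFb-SMMHC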
Details: Cerulean-Runt/Venus-CBFb-SMMHC FRET ratio 530/480, 1 h; retest duplicate average; at 20 µM; stronger effect = higher value

UniProt Q01196, sequence (Q01196 whole entry, looked up, the tested form may be a part): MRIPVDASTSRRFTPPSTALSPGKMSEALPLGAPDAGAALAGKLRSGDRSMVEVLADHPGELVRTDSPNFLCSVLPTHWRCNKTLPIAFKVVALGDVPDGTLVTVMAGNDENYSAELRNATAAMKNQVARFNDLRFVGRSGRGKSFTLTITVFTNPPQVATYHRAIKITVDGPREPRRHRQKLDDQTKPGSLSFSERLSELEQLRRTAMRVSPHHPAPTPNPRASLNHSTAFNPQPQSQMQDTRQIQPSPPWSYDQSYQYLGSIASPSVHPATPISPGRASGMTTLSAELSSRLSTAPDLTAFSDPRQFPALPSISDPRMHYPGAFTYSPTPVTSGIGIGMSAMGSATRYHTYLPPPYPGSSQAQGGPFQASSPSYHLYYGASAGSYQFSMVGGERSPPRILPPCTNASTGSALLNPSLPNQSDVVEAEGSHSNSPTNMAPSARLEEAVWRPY
UniProt Q01196, sequence (Q13951 whole entry, looked up, the tested form may be a part): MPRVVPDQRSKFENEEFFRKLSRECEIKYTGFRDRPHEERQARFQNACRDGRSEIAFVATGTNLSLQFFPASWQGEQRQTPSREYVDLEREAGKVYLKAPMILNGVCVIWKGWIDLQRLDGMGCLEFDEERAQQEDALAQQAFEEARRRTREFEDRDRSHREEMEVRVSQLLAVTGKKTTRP

CC(C)OC(=O)c1c(N)n(CC2CCCO2)c2nc3ccccc3nc12 (stereo not given) was tested. Which inhibition did it give?
The inhibition was 139%.

Which inhibition does the source give for CCC(=NCc1ccco1)c1c(O)n(C2CCCCC2)c(=O)[nH]c1=O here?
Its inhibition is 120%.

COCCNC(=O)c1c(NC(=O)c2ccco2)n(Cc2ccccc2)c2nc3ccccc3nc12 was tested. Which inhibition did it give?
The inhibition was 105%.

Which inhibition does the source give for CCCCOCCCn1c(N)c(C(=O)OC(C)COC)c2nc3ccccc3nc21 (stereo not given) here?
Its inhibition is 117%.

Which inhibition does the source give for COCCNC(=O)c1c(N)n(CCC(C)C)c2nc3ccccc3nc12 here?
Its inhibition is 104%.

How did the inhibition turn out when COc1ccc(-n2c(O)c(/C=C/C=Nc3ccccc3)c(=O)[nH]c2=O)cc1 was run?
Its inhibition is 58.2%.

Cn1c(O)c(/C=N/NC(=O)c2ccncc2)c(=O)[nH]c1=S was tested. Which inhibition did it give?
Its inhibition is 73.8%.

For N#CC1=C(N)Oc2cc(O)ccc2C1c1ccc2c(c1)OCO2 (stereo not given), which inhibition is on record?
Its inhibition is 70.6%.

With Cc1ccccc1-n1c(O)c(/C=N/NC(=O)c2ccccc2O)c(=O)[nH]c1=S as the molecule, how does the inhibition read?
The inhibition was 66.6%.

With CCOC(=O)c1c(N)n(Cc2ccco2)c2nc3ccccc3nc12 as the molecule, how does the inhibition read?
Its inhibition is 104%.

For CCCCn1c(N)c(C(=O)NCCN2CCOCC2)c2nc3ccccc3nc21, which inhibition is on record?
Its inhibition is 91.2%.

With CCCCCn1c(NC(=O)c2ccco2)c(C(=O)OCC)c2nc3ccccc3nc21 as the molecule, how does the inhibition read?
The inhibition was 104%.

How did the inhibition turn out when CCCNC(=O)c1c(N)n(Cc2ccco2)c2nc3ccccc3nc12 was run?
The inhibition was 97.6%.

How did the inhibition turn out when O=C(O)CCC(=O)NCCC1=c2ccccc2=N/C1=C\c1c(O)n(Cc2ccc(F)cc2)c(=S)[nH]c1=O was run?
The inhibition was 87.9%.

CCCCn1c(N)c(C(=O)OCC2CCCO2)c2nc3ccccc3nc21 (stereo not given) was tested. Which inhibition did it give?
Its inhibition is 110%.

O=c1[nH]c(=O)n(-c2ccccc2)c(O)c1/C=C/C=Nc1ccccc1 was tested. Which inhibition did it give?
The inhibition was 79.1%.

With COCCCn1c(N)c(C(=O)OCCOC)c2nc3ccccc3nc21 as the molecule, how does the inhibition read?
The inhibition was 129%.

For COCCNC(=O)c1c(NC(=O)c2ccc(Br)o2)n(Cc2ccccc2)c2nc3ccccc3nc12, which inhibition is on record?
The inhibition was 83.6%.

Which inhibition does the source give for COC(=O)c1c(N)n(Cc2ccc(OC)cc2)c2nc3ccccc3nc12 here?
Its inhibition is 132%.

For COCCOC(=O)c1c(N)n(Cc2ccccc2)c2nc3ccccc3nc12, which inhibition is on record?
Its inhibition is 126%.

Which inhibition does the source give for O=c1[nH]c(O)c(/C=C2/C=CC(c3cc(Cl)ccc3Cl)=N2)c(=O)[nH]1 here?
The inhibition was 183%.

CC(C)CCn1c(N)c(C(=O)OCC2CCCO2)c2nc3ccccc3nc21 (stereo not given) was tested. Which inhibition did it give?
Its inhibition is 123%.

With CCC(C)OC(=O)c1c(N)n(Cc2cccs2)c2nc3ccccc3nc12 (stereo not given) as the molecule, how does the inhibition read?
Its inhibition is 109%.

Which inhibition does the source give for CCOC(=O)c1c(N)n(CCN2CCCCC2)c2nc3ccccc3nc12 here?
Its inhibition is 105%.

COc1ccc(CCNC(=O)c2c(N)n(CCN3CCOCC3)c3nc4ccccc4nc23)cc1 was tested. Which inhibition did it give?
The inhibition was 122%.

How did the inhibition turn out when CCC(C)NC(=O)c1c(N)n(CC2CCCO2)c2nc3ccccc3nc12 (stereo not given) was run?
The inhibition was 116%.

With CC(C)OCCCNC(=O)c1c(N)n(Cc2cccs2)c2nc3ccccc3nc12 as the molecule, how does the inhibition read?
Its inhibition is 129%.

How did the inhibition turn out when CCOC(=O)c1c(N)n(Cc2ccc(OC)cc2)c2nc3ccccc3nc12 was run?
The inhibition was 135%.

With Nc1c(C(=O)NCc2ccco2)c2nc3ccccc3nc2n1Cc1ccccc1 as the molecule, how does the inhibition read?
The inhibition was 74%.

CC(C)CNC(=O)c1c(N)n(Cc2ccco2)c2nc3ccccc3nc12 was tested. Which inhibition did it give?
The inhibition was 72.9%.

How did the inhibition turn out when CCCCn1c(O)c(/C=C/C=Nc2ccccc2)c(=O)[nH]c1=O was run?
The inhibition was 77.3%.

With CCCNC(=O)c1c(N)n(CC2CCCO2)c2nc3ccccc3nc12 (stereo not given) as the molecule, how does the inhibition read?
Its inhibition is 86.2%.

How did the inhibition turn out when Nc1c(C(=O)OCC2CCCO2)c2nc3ccccc3nc2n1Cc1cccs1 (stereo not given) was run?
The inhibition was 103%.

Which inhibition does the source give for C[C@]12CC[C@@H]3c4ccc(O)c(O)c4CC[C@H]3[C@@H]1CC[C@@H]2O here?
Its inhibition is 59%.

For Cc1cccn2c(=O)c3cc(C(=O)N4CCC5(CC4)OCCO5)n(C)c3nc12, which inhibition is on record?
The inhibition was 63.8%.

For COCCCNC(=O)c1c(NC(=O)c2ccccc2Cl)n(Cc2ccccc2)c2nc3ccccc3nc12, which inhibition is on record?
The inhibition was 64.4%.

Which inhibition does the source give for CCCCCn1c(N)c(C(=O)NCCN2CCOCC2)c2nc3ccccc3nc21 here?
Its inhibition is 103%.

CCOCCCn1c(N)c(C(=O)Nc2sc3c(c2C(=O)OC)CCCC3)c2nc3ccccc3nc21 was tested. Which inhibition did it give?
Its inhibition is 97.8%.

Nc1c(C(=O)NCCN2CCOCC2)c2nc3ccccc3nc2n1Cc1ccccc1 was tested. Which inhibition did it give?
The inhibition was 70.6%.

Which inhibition does the source give for O=c1[nH]c(=O)n(Cc2ccccc2)c(O)c1/C=C1\C=Nc2ccccc21 here?
Its inhibition is 52.4%.

Which inhibition does the source give for N#Cc1c(/N=C/c2ccc(O)cc2O)sc2c1C1CCN2CC1 here?
Its inhibition is 136%.

COCCOC(=O)c1c(N)n(Cc2ccc(OC)cc2)c2nc3ccccc3nc12 was tested. Which inhibition did it give?
Its inhibition is 123%.

Which inhibition does the source give for Nc1c(C(=O)NCc2ccco2)c2nc3ccccc3nc2n1Cc1ccc(F)cc1 here?
Its inhibition is 84.7%.

How did the inhibition turn out when COCCCNC(=O)c1c(NC(=O)c2ccco2)n(Cc2ccccc2)c2nc3ccccc3nc12 was run?
The inhibition was 127%.

CCCCn1c(N)c(C(=O)NCc2cccs2)c2nc3ccccc3nc21 was tested. Which inhibition did it give?
Its inhibition is 75.5%.

CCCCn1c(O)c(/C=N/NC(=O)c2ccncc2)c(=O)[nH]c1=S was tested. Which inhibition did it give?
Its inhibition is 74.2%.

With N#Cc1c(Cl)nc(Cl)c2c1CCN(Cc1ccccc1)C2 as the molecule, how does the inhibition read?
The inhibition was 51.9%.

Which inhibition does the source give for COCCCNC(=O)c1c(N)n(Cc2ccco2)c2nc3ccccc3nc12 here?
Its inhibition is 70.6%.

For C=CCn1c(O)c(/C=C/C=Nc2ccccc2)c(=O)[nH]c1=O, which inhibition is on record?
The inhibition was 74.9%.

CCn1c(O)c(/C=N/NC(=O)c2ccncc2)c(=O)[nH]c1=S was tested. Which inhibition did it give?
Its inhibition is 75.6%.

With COc1ccc2c3c([nH]c2c1)C(C)NCC3 (stereo not given) as the molecule, how does the inhibition read?
Its inhibition is 70.6%.

With Nc1c(C(=O)NC2CCCC2)c2nc3ccccc3nc2n1CC1CCCO1 (stereo not given) as the molecule, how does the inhibition read?
The inhibition was 73.5%.

How did the inhibition turn out when COCCCn1c(N)c(C(=O)OC(C)COC)c2nc3ccccc3nc21 (stereo not given) was run?
The inhibition was 143%.

For COc1ccc2c3c([nH]c2c1)C(C)=NCC3, which inhibition is on record?
Its inhibition is 71.5%.

COc1ccc(Cn2c(N)c(C(=O)NCc3ccco3)c3nc4ccccc4nc32)cc1OC was tested. Which inhibition did it give?
Its inhibition is 78.7%.

For COc1ccc(N=Cc2c(O)n(-c3ccc(C)cc3)c(=O)[nH]c2=O)cc1, which inhibition is on record?
Its inhibition is 58.5%.

Which inhibition does the source give for CCn1c(O)c(/C=N/NC(=O)c2ccccc2)c(=O)n(CC)c1=S here?
Its inhibition is 81.1%.

How did the inhibition turn out when COCCCn1c(N)c(C(=O)NCc2ccco2)c2nc3ccccc3nc21 was run?
The inhibition was 84.7%.

How did the inhibition turn out when CC(C)c1ccc(-n2c(O)c(/C=N/NC(=O)c3ccccc3O)c(=O)[nH]c2=S)cc1 was run?
The inhibition was 70.9%.

CCCCCCn1c(N)c(C(=O)NCCN2CCOCC2)c2nc3ccccc3nc21 was tested. Which inhibition did it give?
Its inhibition is 114%.

Nc1c(C(=O)NCCN2CCOCC2)c2nc3ccccc3nc2n1Cc1ccco1 was tested. Which inhibition did it give?
Its inhibition is 89.1%.

For Cn1c(O)c(/C=C/C=Nc2ccccc2)c(=O)n(C)c1=O, which inhibition is on record?
Its inhibition is 70.5%.

With CCCCn1c(NS(=O)(=O)c2ccc(C)cc2)c(C(=O)OCC)c2nc3ccccc3nc21 as the molecule, how does the inhibition read?
The inhibition was 71.5%.

How did the inhibition turn out when CCC(C)n1c(O)c(/C=N/NC(=O)c2ccncc2)c(=O)[nH]c1=S (stereo not given) was run?
Its inhibition is 71.6%.

Which inhibition does the source give for Nc1c(C(=O)NCC2CCCO2)c2nc3ccccc3nc2n1Cc1ccco1 (stereo not given) here?
Its inhibition is 70.6%.
